In the supplement of paper PMC3334620:
Whole data set: some 33,000 sequences, median “E-score (-0.5 to 0.5)” near -0.043, cut for the highest 2% near 0.37. Some of the results follow.

target: T1, Upc2 (UniProt Q12151); experiment: PBM E-score (8-mer binding enrichment) (E-score (-0.5 to 0.5)); higher = stronger / more preferred TF binding; most listed sequences are background and not binding sites; settings: protein concentration: 200 nM; construct: GST-full length
T1 sequence: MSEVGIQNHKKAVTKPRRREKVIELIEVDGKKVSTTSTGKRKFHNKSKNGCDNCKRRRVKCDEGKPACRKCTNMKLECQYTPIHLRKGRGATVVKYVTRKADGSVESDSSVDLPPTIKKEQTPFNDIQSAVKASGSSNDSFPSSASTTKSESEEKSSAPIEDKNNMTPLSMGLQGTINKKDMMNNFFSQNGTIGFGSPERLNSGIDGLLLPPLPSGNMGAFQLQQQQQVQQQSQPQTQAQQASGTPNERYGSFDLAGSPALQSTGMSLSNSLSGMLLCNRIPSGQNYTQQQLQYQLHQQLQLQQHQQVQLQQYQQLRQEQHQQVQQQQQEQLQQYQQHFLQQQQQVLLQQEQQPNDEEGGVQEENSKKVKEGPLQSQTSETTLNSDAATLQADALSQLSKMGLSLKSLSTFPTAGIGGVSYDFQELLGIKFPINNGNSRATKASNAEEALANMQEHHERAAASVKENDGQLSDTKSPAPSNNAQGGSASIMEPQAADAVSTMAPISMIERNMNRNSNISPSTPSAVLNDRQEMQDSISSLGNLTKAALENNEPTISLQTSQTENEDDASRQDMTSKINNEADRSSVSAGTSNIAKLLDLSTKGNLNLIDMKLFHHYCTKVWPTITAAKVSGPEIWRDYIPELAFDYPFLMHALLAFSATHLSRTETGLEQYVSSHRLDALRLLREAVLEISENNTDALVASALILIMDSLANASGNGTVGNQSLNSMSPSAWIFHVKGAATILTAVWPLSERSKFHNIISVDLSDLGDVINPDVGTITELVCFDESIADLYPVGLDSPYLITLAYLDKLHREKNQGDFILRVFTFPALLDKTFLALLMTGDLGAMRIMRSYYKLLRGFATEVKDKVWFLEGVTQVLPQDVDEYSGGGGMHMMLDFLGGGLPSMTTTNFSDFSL
Procedure, shortened: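 PURExpress in vitro transcription/translation supplied GST-tagged yeast transcription factors, either full-length or DNA-binding domain. Applied at about 100-200 nM to universal all-10-mer Agilent arrays double-stranded by primer extension, the bound protein was detected with fluorescent anti-GST. E-scores, modified Wilcoxon-Mann-Whitney statistics, were given by the Universal PBM Analysis Suite to ungapped eight-base words pooled with their reverse complements after masliner normalisation.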

Sequence	PBM E-score
GCAGAAGC	6e-05
GACGCTCA	-0.135
ACAGTTAT	-0.0929
AGCTAGCA	-0.112
AGCCTCTC	-0.241
CCACACCG	-0.0993
CCTGCGAC	-0.0909
CAGCAGCG	-0.0937
AATGCAGT	0.0382
CCATGTGC	-0.0783
AGCCAGGG	-0.0694
ACTGGATG	-0.109
CGGGCCAG	0.0433
CTTGGGGC	-0.245
CGTAAGCA	0.149
CAGTCCAG	-0.254
AGATAAAC	0.238
ACTGGACC	0.0454
GAATGTGC	0.0279
ATCATGAA	-0.0399
CAGCGCAA	-0.0763
AAGACATG	-0.154
GGCCCAAA	0.0278
CAGTTTGC	0.06
CATAAAGG	-0.152

Sequence	PBM E-score
CCTCCTAA	-0.169
CAGTCTCC	-0.188
ATTGAGCC	-0.18
TATAAGGA	0.133
TAAGTAGA	-0.00088
CACCTAAG	0.0522
GATAGACC	-0.00571
ATAAAAAC	0.123
CACCAGGC	-0.27
AGTTATGG	-0.179
CCCTTCAG	-0.232
ATCTCAGA	-0.0306
CACCGATA	-0.00776
CCGGTGCA	-0.153
AGCTGTAA	0.0117
CCGGCAGG	-0.141
CCTTTGAG	-0.14
CTCATATC	-0.258
TATGGTCA	0.0341
ATGATGCC	-0.174
ATTCACGC	-0.103
GACTACGA	0.218
GAAGCCCA	-0.121
GATGTACC	-0.0576
AACCGGGC	0.0434

Sequence	PBM E-score
CGGCGTGA	-0.232
CCTACCAA	-0.205
AGGGTGCA	-0.29
CCCTGCGA	-0.116
CGTCGCAA	0.149
CGTCGGCA	0.0991
AAATCACC	-0.095
GCACAGGA	-0.182
GTCAAAGA	0.0912
AATCCGCT	-0.101
AACTTGAA	-0.106
CTTTCTGA	-0.152
TACGTAGA	0.18
ACAGCTCA	-0.185
CATTCCGC	-0.213
ATAGACAG	-0.0478
GGATATAC	0.156
CAGCTCAA	-0.165
ATTTGGCC	-0.191
AACGCCTT	-0.0624
ATCATAAT	0.0818
CGGCGTTA	0.128
CTCGGTTC	0.156
AAGTATTC	-0.0945
AGAGTGCT	0.00309

Sequence	PBM E-score
AGTACAAG	-0.052
AACACCAA	0.0411
ATCATTTC	-0.0212
ATACAACG	0.0599
CTAAAACC	-0.156
CGGCCTAG	-0.233
ACGTACGT	0.293
ACTACTCA	-0.131
ACCGAGCG	0.268
CGCGTCGA	-0.0357
ACAGCACG	0.0813
AAAGGCAC	-0.202
AGGCCTGG	-0.0671
ACACAGCG	0.104
TAGTCCAA	-0.158
CGTTCCAC	0.331
AGTACTGG	-0.0923
ACATCGTA	0.425
ATTAAAGA	-0.00799
TCGTTCCA	0.46
ATGTTTGC	-0.103
ACATACGA	0.476
TCCGTGCA	-0.114
GTGATGGA	-0.181
CTTAATTA	-0.107

Sequence	PBM E-score
CAGACTAC	0.0927
CAACCTTA	-0.207
ATAGACTC	-0.0791
CAAGCCAA	0.12
GAGTAGCA	-0.13
CCAAGTTA	-0.193
TTCCGAAA	-0.00315
ATTTAATC	-0.00608
GGAATAAA	-0.0324
CGGACCTA	-0.0897
GGGTCCAA	0.0556
ATCATAAA	-0.144
TAAGTACA	0.0118
ACACTCCC	-0.214
CATTTTCA	-0.0947
CAGGAATA	-0.136
GGTCCGTA	0.308
ATCAGCAG	-0.206
ACAGCGTC	0.0232
CACTGGAG	-0.333
AGGAGCCT	-0.12
ACATCCGG	0.0179
GCTTGGGA	-0.177
CGGACGCC	-0.0318
AATGGCCT	-0.147

Sequence	PBM E-score
GGATGGAA	-0.0401
CGTCTGAA	-0.0488
AATTTTAA	0.123
GGTTCGCA	0.122
CTGGCTTA	-0.142
CTGTACCC	-0.141
GGTAAAGA	0.0863
AATGAGTA	0.123
GCGGTGCA	-0.064
ATAGCCAA	0.109
ATTAAATG	-0.098
AACTGGGT	-0.217
AAATGCCC	-0.246
ACCTTCCG	0.0456
ACGATTTG	0.28
CTATTAGC	0.0438
CGGGCCGA	-0.134
CCGAATGC	-0.0189
TCCTAGCA	-0.224
TTCAAGAA	0.109
GGTTGTAA	-0.225
AGTCAGGA	-0.211
AGGGAAGC	-0.182
TCGAGAAA	-0.0489
GCGGGGAA	-0.012

Sequence	PBM E-score
CTGCCAAG	0.00123
AGAAAAAG	-0.233
GAAGGCCC	0.0228
CCTTCCCG	-0.15
ATCGCGGG	0.0563
AGTCTGAG	-0.181
AGTTAAGG	-0.14
ACATAGCA	-0.217
ACTGCTCG	0.135
CTATTTAA	-0.00788
TAGGAATA	-0.197
GTCTTTAA	0.00736
CCGTATAG	0.485
ATTTTATG	-0.0194
CTACGTGC	-0.0358
CCAGTACG	0.312
GCAGAAGA	-0.0226
AGACATAA	0.00996
TATCGGAA	0.133
GTCGCTTA	0.396
GTGCCCTA	-0.129
AATCCCAG	-0.149
